Source: US20240277844A1

T1: CD20 on Ramos cells (human) (UniProt P11836)
T1 sequence (looked up): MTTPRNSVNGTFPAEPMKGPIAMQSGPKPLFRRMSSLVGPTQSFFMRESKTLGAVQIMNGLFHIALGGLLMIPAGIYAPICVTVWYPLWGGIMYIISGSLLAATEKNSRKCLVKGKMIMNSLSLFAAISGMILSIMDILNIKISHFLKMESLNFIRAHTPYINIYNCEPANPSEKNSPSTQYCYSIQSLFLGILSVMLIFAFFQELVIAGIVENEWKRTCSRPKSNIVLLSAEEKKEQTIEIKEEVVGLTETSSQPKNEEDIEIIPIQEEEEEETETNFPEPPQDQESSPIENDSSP

B1: REGN4018 (bispecific antibody, from a related filing, V domains shown, part only)
VH 1: QVQLVESGGGLVKPGGSLRLSCAASGFTFSNYYMSWVRQAPGKGLEWISYISGRGSTIFYADSVKGRITISRDNAKNSLFLQMNSLRAEDTAVYFCVKDRGGYSPYWGQGTLVTVSS
VH 2: EVQLVESGGGLVQPGRSLRLSCAASGFTFDDYSMHWVRQAPGKGLEWVSGISWNSGSKGYADSVKGRFTISRDNAKNSLYLQMNSLRAEDTALYYCAKYGSGYGKFYHYGLDVWGQGTTVTVSS
VL: [sequence of about 100 residues omitted]PITFGQGTRLEIK
B2: REGN4336 (bispecific antibody, from a related filing, V domains shown, part only)
VH 1: QVQLVESGGGVVQPGRSLRLSCAASGFTFSSYGMHWVRQAPGKGLEWVAVISYAGNNKYYADSVKGRFTVSRDNSKKTLYLQMNSLRSEDTAVYYCAKDSYYDFLTDPDVLDIWGQGTMVTVSS
VH 2: EVQLVESGGGLVQPGRSLRLSCAASGFTFDDYSMHWVRQAPGKGLEWVSGISWNSGSIGYADSVKGRFTISRDNAKNSLYLQMNSLRAEDTALYYCAKYGSGYGKFYYYGMDVWGQGTTVTVSS
VL: [sequence of about 100 residues omitted]

What was measured:
[1] = molecular target: T1, CD20 on Ramos cells (human); assay: cell-based or functional assay
PN29950_LCHC = assay: SPR (Biacore), HA-tagged scFv captured on anti-HA, antibody injected, 25 C
PN77570_HCLC = assay: as above
PN78216_HCLC = assay: as above

Binder | Max Activity, CCL5 release (pg/ml), CBNK/CAR6 cells + Ramos/HiBiT [1] | Max Activity, Cytotoxicity (%), CBNK/CAR6 cells + Ramos/HiBiT [1] | Max Activity, FasL release (pg/ml), CBNK/CAR6 cells + Ramos/HiBiT [1] | Max Activity, Granzyme A release (pg/ml), CBNK/CAR6 cells + Ramos/HiBiT [1] | Max Activity, Granzyme B release (pg/ml), CBNK/CAR6 cells + Ramos/HiBiT [1] | Max Activity, IFNγ release (pg/ml), CBNK/CAR6 cells + Ramos/HiBiT [1] | Max Activity, TNFα release (pg/ml), CBNK/CAR6 cells + Ramos/HiBiT [1] | Ab Bind (RU) (PN29950_LCHC) | Kd (PN29950_LCHC) | koff (PN29950_LCHC) | kon (PN29950_LCHC) | t½ (PN29950_LCHC) | Ab Bind (RU) (PN77570_HCLC) | Ab Bind (RU) (PN78216_HCLC) | Kd (PN78216_HCLC) | koff (PN78216_HCLC) | kon (PN78216_HCLC) | t½ (PN78216_HCLC)
B1 | 8.4 pg/mL | 24.8% | 18.1 pg/mL | 641 pg/mL | 204 pg/mL | 70.3 pg/mL | 14.2 pg/mL | – | – | – | – | – | – | – | – | – | – | –
B2 | – | – | – | – | – | – | – | 1520 RU | 2.03 nM | 0.000545 s⁻¹ | 269000 M⁻¹ s⁻¹ | 21.2 min | 1.6 RU | 512 RU | 2.01 nM | 0.000318 s⁻¹ | 158000 M⁻¹ s⁻¹ | 36.3 min
